# In the supplement of paper PMC3334620:
# In all, about 33,000 sequences were measured (“E-score (-0.5 to 0.5)”: median about -0.041, highest 2% from about 0.37 on). Some of the results follow.
# Biological target: T1, Ecm22 (UniProt Q05958)
# T1 sequence: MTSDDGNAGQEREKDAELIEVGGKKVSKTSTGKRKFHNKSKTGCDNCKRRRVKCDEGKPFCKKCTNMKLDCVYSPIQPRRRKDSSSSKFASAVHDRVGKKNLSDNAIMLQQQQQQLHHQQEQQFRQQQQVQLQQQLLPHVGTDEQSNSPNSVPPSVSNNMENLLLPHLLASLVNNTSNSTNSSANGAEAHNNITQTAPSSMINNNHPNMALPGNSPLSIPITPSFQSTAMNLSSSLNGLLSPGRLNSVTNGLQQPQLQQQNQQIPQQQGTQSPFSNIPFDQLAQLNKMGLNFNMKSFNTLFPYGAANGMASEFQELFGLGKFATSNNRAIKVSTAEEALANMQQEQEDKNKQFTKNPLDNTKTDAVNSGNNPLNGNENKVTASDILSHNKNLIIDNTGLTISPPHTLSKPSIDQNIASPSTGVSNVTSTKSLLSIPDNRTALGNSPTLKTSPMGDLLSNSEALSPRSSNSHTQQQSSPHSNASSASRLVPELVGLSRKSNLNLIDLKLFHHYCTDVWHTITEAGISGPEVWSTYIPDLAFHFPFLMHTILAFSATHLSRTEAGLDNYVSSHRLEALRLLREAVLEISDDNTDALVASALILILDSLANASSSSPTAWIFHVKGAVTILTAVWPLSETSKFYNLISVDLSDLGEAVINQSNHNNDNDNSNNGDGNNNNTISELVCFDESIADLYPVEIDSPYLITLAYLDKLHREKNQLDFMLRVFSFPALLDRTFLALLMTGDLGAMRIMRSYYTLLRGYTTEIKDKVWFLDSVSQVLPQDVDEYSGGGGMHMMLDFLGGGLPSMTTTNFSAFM
# Test: PBM E-score (8-mer binding enrichment) (E-score (-0.5 to 0.5)); higher = stronger / more preferred TF binding; most listed sequences are background and not binding sites
# Settings: protein concentration: 200 nM; construct: GST-full length
# Procedure, shortened: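 Detection of bound protein used fluorescent anti-GST, with scans normalised by masliner. The proteins were GST-tagged yeast transcription factors applied at about 100-200 nM to universal all-10-mer Agilent arrays made double-stranded by primer extension. Each ungapped eight-base word, pooled with its reverse complement, was scored with an E-score from the Universal PBM Analysis Suite.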
row,Sequence,PBM E-score
1,ATTTCGTA,0.444
2,CCGATTTC,-0.0193
3,AACTTCTC,0.119
4,CCCCGCCC,0.146
5,ATACCAAA,-0.191
6,ATGCACTC,0.0164
7,ACAGATAG,-0.0946
8,GCTGGGTA,-0.0524
9,CCATTGAG,-0.0705
10,ACTTATGG,-0.124
11,AACAGTAT,0.163
12,ATTTATTG,-0.177
13,ATACCGCG,-0.0245
14,GTTGGACA,-0.173
15,ATAGAAAG,-0.132
16,GAGCGCTC,0.00025
17,TACTATGA,0.056
18,AGTCGGAC,0.113
19,GACCATCA,-0.0551
20,CAAGTTGA,-0.00394
21,CTGCCGCC,-0.192
22,GTTGCCTA,-0.0745
23,AAAGTTAA,-0.0941
24,AACGGCAG,0.253
25,AAGTAAGT,-0.077

row,Sequence,PBM E-score
1,ACTTATAC,0.33
2,ATTGTGTC,-0.111
3,GATCTCGC,0.204
4,CAATTCTC,-0.125
5,AGGAATGA,-0.112
6,GTGCGACA,0.21
7,AGTTAGTC,-0.103
8,ACGCAAGT,-0.102
9,CCACTCGA,0.0344
10,AACATTGA,-0.0998
11,CGTGAGAA,-0.0164
12,CGTGGGCA,-0.289
13,CGTATCGA,0.299
14,CATGGCAC,-0.0282
15,CGCGGGAC,-0.0556
16,CACTTCCG,-0.143
17,AGTTAGGA,-0.182
18,GGCTAGTA,-0.00889
19,ACTTCCCG,0.0496
20,ACCCTCGT,0.449
21,CATGGTAA,-0.0589
22,AATTGCGC,0.137
23,ACGTATAC,0.381
24,CTTTCCAC,-0.114
25,CAACAATA,-0.0877

row,Sequence,PBM E-score
1,ACCCCCCT,-0.25
2,AGGATTCA,-0.182
3,TACTGTCA,-0.012
4,CTGGAGTC,-0.0841
5,CTCCAAGA,-0.22
6,CTACCGAA,-0.0377
7,CGCCTAAC,0.0393
8,GCTAGTGA,-0.0577
9,CCGGTTAG,-0.0257
10,AGTACCAC,0.0416
11,ACCCTCAT,-0.0611
12,CGGCGCAG,-0.0964
13,TAACAGGA,-0.0348
14,AACGAGTG,0.421
15,ATACTCCG,-0.0755
16,CACGCATC,0.179
17,CGAAATGC,0.139
18,GCCGATAC,0.119
19,GTACTCAC,0.129
20,TTGTCAAA,-0.00242
21,TAGGTAGA,-0.226
22,AAGTAAAG,-0.26
23,ATTCCCAG,-0.0258
24,CCTTCAAA,-0.195
25,CGTCTCTA,-0.154

row,Sequence,PBM E-score
1,GCAAATAA,-0.0637
2,ATATGCTA,0.0175
3,CTGGCGAC,-0.209
4,AACCGTCA,-0.233
5,AACCTTCG,0.156
6,CTTGAATA,-0.166
7,CCTCCCAA,-0.107
8,GAACTAGA,0.0301
9,ACGCTGCT,-0.00608
10,CAAATTGC,0.104
11,GGAGGAGA,-0.114
12,CCGGTGAC,-0.0265
13,ACTAGCAC,-0.0974
14,ATTTTATA,0.0403
15,AGTTGTAA,-0.0537
16,CTCCGATA,-0.161
17,GCTTCTAC,0.104
18,AGCAATGG,-0.0916
19,AGGACAGA,-0.324
20,GACCAGTC,-0.26
21,ATGGTGAG,-0.163
22,TTCGCGAA,0.28
23,CATAGATA,-0.181
24,CGGAAAGC,0.0405
25,AAACTTAG,-0.191

row,Sequence,PBM E-score
1,ATCTGCCC,-0.0671
2,TCGATACA,0.13
3,CCGATAAC,0.12
4,ACAGTGAT,0.0761
5,ATTAGGAG,-0.155
6,ATGGAAGC,-0.118
7,CAGACATC,-0.0843
8,AATGCGGG,0.0146
9,GGCGGTAA,0.131
10,GTTTTGAA,-0.087
11,ATCGCACC,0.187
12,CCAAGTGA,-0.177
13,AAGGTTCC,-0.273
14,GGCGTACC,0.279
15,TACTTTGA,-0.0416
16,TAACGGTA,0.143
17,GGGTCCGA,0.145
18,CATGGAGA,-0.251
19,CCAGGAGA,-0.17
20,GGATCGCA,0.0913
21,CCCCTAAA,-0.238
22,CCTGATAA,0.00885
23,CAGGCTGC,-0.272
24,GTATTAAA,0.123
25,CATCGCTC,0.204

row,Sequence,PBM E-score
1,CCTAACAA,-0.113
2,GGAGCATA,0.026
3,GTTTTCAA,0.0626
4,CACCGTTC,0.307
5,CCGCCACG,-0.167
6,ACTTGGTC,0.139
7,ACTATGGG,-0.118
8,AGTCGTCC,-0.0209
9,ACTGCCAC,-0.0822
10,AAGCATAC,0.0946
11,GGCGCTGA,-0.309
12,ATCATGGC,-0.119
13,ACATGTCG,0.0858
14,ATAGGAAG,0.0431
15,ATGCCAGG,-0.214
16,AGGAACTA,0.123
17,CGTGATCA,-0.114
18,AATCGTTA,0.269
19,ATATGCCC,-0.261
20,TCCACGGA,-0.117
21,ATAAAGCA,-0.21
22,ATATCAAG,0.0598
23,CATACAGG,-0.109
24,CCCCTGAG,-0.102
25,AGATGTAA,-0.0972

row,Sequence,PBM E-score
1,CTATCATC,0.0272
2,ACTGAGGG,-0.17
3,CGGTCCAA,-0.145
4,TATTCTGA,-0.106
5,CTATGGAG,-0.148
6,AAGTTTAC,0.202
7,AGTACGGC,0.339
8,GCTTGAGA,-0.0858
9,CTAGACGA,0.106
10,ATAGTTTA,0.0483
11,ACACCGGG,-0.216
12,AGACTGGG,-0.224
13,CCAGCTCC,-0.0495
14,GAATTGCA,-0.00573
15,ATACCTAC,0.0801
16,GATGACCC,-0.064
17,ACTCGAAC,0.174
18,AGACTGCG,-0.242
19,CTTCACTA,-0.235
20,ACCGAGGA,0.303
21,ACGCTAGA,-0.161
22,TAGTGCCA,-0.21
